The values that follow come from the supplement of paper PMC9446081.

Screen size: about 39,000 compounds; about 220 (0.56%) showed activity. The list shows a part of the results.
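Note: static incubation at 37 °C against the wild-type strain, values averaged over two biological replicates.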

The assay relates to Escherichia coli K-12 BW25113. As to the kind of experiment: relative growth (OD600 normalised to plate interquartile mean) (fraction); higher = less growth inhibition, active = 0.2 or less. To be noted: 50 µM; LB; incubation time: overnight (16-24 h).
Regarding `O=C(O)[C@H]1N[C@H]2CC[C@@H]1C2`, the relative growth is inactive: 1.01.
For `COc1ccc2cc(CCN)c(=O)[nH]c2c1`, the relative growth is inactive: 1.01.
As for `CN1C[C@@H](C(=O)O)CN2CCN(C(=O)c3ccncc3F)C[C@@H]2C1`, the figure is inactive: 1.07; as for `NCCc1cccc2ccccc12`, inactive: 1.
Take `COC(=O)[C@@H]1C(=O)NC[C@H]1C(C)C`: the relative growth was inactive: 0.99.
In the case of `COc1cc(C=O)cc(OC)c1OC`, the relative growth is inactive: 1.04.
Take `CN1CCc2cc3c(cc2[C@@H]1O)OCO3`: the relative growth is inactive: 1.
Regarding `CCOC(=O)c1cncn1C(C)c1ccccc1` (stereo not given), the relative growth is inactive: 0.991.
With `CNC(=O)Oc1cccc2ccccc12`, the relative growth was inactive: 1.05.
Take `COC1=CC(=O)OC(C=Cc2ccccc2)C1` (stereo not given): the relative growth was inactive: 1.04.
In the case of `CC(C)CCC[C@]1(C)C=Cc2c(O)c3c(c(CCC(C)C)c2O1)O[C@]12[C@H](C[C@@H]4C[C@H]1C(C)(C)O[C@]2(CC[C@@H](C)C(=O)O)[C@@H]4O)C3=O`, the relative growth was inactive: 0.905.
For the molecule `Cc1cc[n+](C)cc1`, the relative growth was inactive: 0.995.
The value for `C[N+]12CCC(CC1)C(OC(=O)C(O)(c1ccccc1)c1ccccc1)C2.[Br-]` (stereo not given) was inactive: 0.968.
Turning to `CCN1C[C@]2(COC)CC[C@@H](OC)[C@@]34[C@@H]2[C@@H](OC)[C@@H]([C@@H]13)[C@]1(OC(C)=O)C[C@@H](OC)[C@@]2(O)C[C@H]4[C@@H]1[C@H]2OC(=O)c1ccc(OC)cc1`, the relative growth was inactive: 1.02.
As to `CC(O)(CS(=O)(=O)c1ccc(F)cc1)C(=O)Nc1ccc(C#N)c(C(F)(F)F)c1` (stereo not given), the relative growth was inactive: 1.03.
Turning to `C[C@H]1CN([C@@H](C)CO)C(=O)CCCn2nncc2CO[C@@H]1CN(C)C(=O)Oc1ccc2ccccc2c1`, the relative growth was inactive: 0.907.
With `O=C1C[C@@H](c2ccc(O)cc2)CN1`, the relative growth was inactive: 0.997.
The value for `[N-]=[N+]=Nc1ccccc1C[C@@]1(C(=O)NCCN2CCOCC2)N=C(c2ccc(OCCCO)cc2)O[C@@H]1c1ccccc1N=[N+]=[N-]` was inactive: 1; that for `C[C@@H]1CC[C@@]2(OC1)O[C@H]1[C@@H](O)[C@H]3[C@H]4CC[C@H]5C[C@H](O[C@@H]6O[C@H](CO)[C@H](O[C@@H]7O[C@H](CO)[C@@H](O)[C@H](O[C@@H]8OC[C@@H](O)[C@H](O)[C@H]8O)[C@H]7O[C@@H]7O[C@H](CO)[C@H](O)[C@H](O[C@@H]8O[C@H](CO)[C@@H](O)[C@H](O)[C@H]8O)[C@H]7O)[C@H](O)[C@H]6O)[C@H](O)C[C@]5(C)[C@@H]4CC[C@]3(C)[C@H]1[C@@H]2C` was inactive: 1.02.
Turning to `Cc1nccc2c1[nH]c1cc(O)ccc12`, the relative growth is inactive: 0.9.
With `COc1cc2c(cc1OC)C1C(=O)c3ccc4c(c3OC1CO2)CC(C(C)C)O4` (stereo not given), the relative growth was inactive: 0.996.
With `CCCCS(=O)(=O)N1C[C@H]2CNC[C@@H]2C1`, the relative growth is inactive: 0.992.
With `CC(C)c1cccc(C(C)C)c1O`, the relative growth is inactive: 0.859.
The value for `OCc1ccco1` was inactive: 1.05; that for `C[C@@]12NC(=O)CN1CCc1ccccc12` was inactive: 1.03.
Consider `CC(C)(CN)CNc1ccc([N+](=O)[O-])c2cccnc12`, for which the relative growth is inactive: 0.97.
For the molecule `COc1c(C[C@@H](C)O)c2c3c(C[C@@H](C)O)c(OC)c(=O)c4c(O)cc5c(c6c(cc(O)c(c1=O)c62)OCO5)c43`, the relative growth was inactive: 1.08.
In the case of `O=C(Cc1ccccc1)c1ccccc1`, the relative growth is inactive: 0.986.
For the molecule `O[C@@H]1[C@@H]2C[C@H]3[C@H]1N[C@@H]1C[C@@H]2[C@@H]3[C@H]1O`, the relative growth was inactive: 0.919.
Take `CCOc1ccc(CN)cn1`: the relative growth was inactive: 0.985.
Take `NCCc1nnc2n1CCCCC2`: the relative growth is inactive: 0.997.
Regarding `CC(=O)N[C@H]1CCSC1=O`, the relative growth is inactive: 1.01.
Consider `C=C1[C@H]2CC[C@H]3[C@]4(C)C[C@H](O[C@H]5O[C@@H](CO)[C@@H](OS(=O)(=O)O)[C@H](OS(=O)(=O)O)[C@H]5OC(=O)CC(C)C)C[C@@H](C(=O)O)[C@H]4CC[C@]3(C2)[C@H]1O`, for which the relative growth is inactive: 1.02.
As for `Cc1cc([C@@H](C#N)c2ccc(Cl)cc2)c(Cl)cc1NC(=O)c1cc(I)cc(I)c1O`, the figure is inactive: 0.985.
With `COc1ccc2c(c1OC)C(=O)OC2C1c2cc3c(cc2CCN1C)OCO3` (stereo not given), the relative growth was inactive: 1.1.
Turning to `Cc1cccc(CN2C[C@H]3OCCN(C)[C@H]3C2)n1`, the relative growth is inactive: 0.971.
As for `CC(=O)OC[C@]12CCC(C)=C[C@H]1O[C@@H]1[C@H](O)[C@@H](OC(C)=O)[C@@]2(C)[C@]12CO2`, the figure is inactive: 0.969; as for `N[C@H](CO)Cc1ccccc1`, inactive: 0.994; as for `C=C[C@H]1[C@H](O[C@@H]2O[C@H](CO)[C@@H](O)[C@H](O)[C@H]2O)OC=C2C(=O)OCC[C@H]21`, inactive: 0.992.
As for `O=C(C1CCCC1)N1C[C@@H]2CCNC[C@@H]21`, the figure is inactive: 1; as for `COc1cc([C@@H](O)CN)ccc1O`, inactive: 1.01.
Regarding `C=CCC1(O)CCC2C3CCC4=CCCCC4C3CCC21C` (stereo not given), the relative growth is inactive: 0.969.
On to `CC1(C)C(=O)C2OC2C2(C)C1CC(O)C1(C)C2CCC2(C)C(c3ccoc3)OC(=O)C3OC321` (stereo not drawn) ["1,2alpha-EPOXYDEACETOXYDIHYDROGEDUNIN"], for which the relative growth is inactive: 1.11.
As for `O=[N+]([O-])c1cc(O)c(O)c([N+](=O)[O-])c1`, the relative growth is inactive: 0.986.
Take `C[C@@H]1[C@H](O)[C@@H](C)/C=C\C=C/CC\C=C/C=C\C=C/C=C\[C@H](O[C@@H]2O[C@H](C)[C@@H](O)[C@H](N)[C@@H]2O)C[C@@H]2O[C@](O)(C[C@@H](O)[C@H](O)CC[C@@H](O)C[C@@H](O)C[C@@H](O)CC(=O)O[C@H]1C)C[C@H](O)[C@H]2C(=O)O`: the relative growth is inactive: 1.
In the case of `CN(C)C1=NC(=O)C2(CCNCC2)N1`, the relative growth is inactive: 1.03.
On to `CC1CCC2C(C)C(=O)OC3OC4(C)CCC1C32OO4` (stereo not given), for which the relative growth is inactive: 0.566.
As for `O=C1C[C@@H](c2ccncc2)C2(CCNCC2)N1`, the figure is inactive: 0.917.
`C[C@H](CO)N1C[C@H](C)[C@H](CN(C)C(=O)Oc2ccc3ccccc3c2)OCc2cn(nn2)CCCC1=O`: the relative growth was inactive: 1.02.
For the molecule `OCCN[C@@H]1c2ccccc2[C@H]2CNC[C@H]21`, the relative growth is inactive: 0.989.
In the case of `Cc1ccc2n[nH]c(CN)c2c1`, the relative growth is inactive: 0.959.
As for `N.N.[Cl][Pt][Cl]`, the relative growth is inactive: 1.
Consider `CNC(=O)Oc1ccc2c(c1)C1(C)CCN(C)C1N2C.O=S(=O)(O)O` (stereo not given), for which the relative growth was inactive: 0.839.
With `N/N=C(/N)NO`, the relative growth is inactive: 1.03.
As to `C1CNC[C@@H](N2CCCC2)C1`, the relative growth was inactive: 0.916.
As to `CCC1=C[C@@H]2[C@H](C1)C[C@]2(CN)CC(=O)O`, the relative growth was inactive: 1.
For the molecule `O=C(O)CC[N+](=O)[O-]`, the relative growth is inactive: 0.781.
For the molecule `c1ccc2cc3c(cc2c1)-c1cccc2cccc-3c12`, the relative growth is inactive: 1.02.
The value for `[N-]=[N+]=NCc1ccccc1C[C@]1(C(=O)N2CCOCC2)N=C(c2ccc(OCCCO)cc2)O[C@H]1c1ccccc1N=[N+]=[N-]` was inactive: 1.06.
For `Cc1cc2ccccc2n1CCN`, the relative growth is inactive: 0.978.
On to `CC1C=CC=CCCC=CC=CC=CC=CC(OC2OC(C)C(O)C(N)C2O)CC2OC(O)(CC(O)C(O)CCC(O)CC(O)CC(O)CC(=O)OC(C)C(C)C1O)CC(O)C2C(=O)O` (stereo not given), for which the relative growth is inactive: 1.1.
Regarding `Clc1cc2c(cc1Cl)Oc1cc(Cl)c(Cl)cc1O2`, the relative growth was inactive: 0.971.
Consider `CC1=C2C3OC(=O)C(C)C3CCC2(C)C=CC1=O` (stereo not given), for which the relative growth was inactive: 0.937.
As to `OCC(CO)N1CCC2(CCNCC2)CC1`, the relative growth is inactive: 0.998.
As for `C[C@H](CO)N1C[C@H](C)[C@@H](CN(C)C(=O)Oc2ccc3ccccc3c2)OCc2cn(nn2)CCCC1=O`, the figure is inactive: 0.979; as for `CC(=O)N[C@H]1C(=O)NC(=S)N(c2ccccc2)C1=O`, inactive: 1.02.
For `Cc1cccc2[nH]c(CCN)nc12`, the relative growth was inactive: 0.986.
As for `CC1(C)NN1CCCN1NC1(C)C` (stereo not given), the figure is inactive: 1.01; as for `N#C[C@@]12[C@H]3CC=C[C@@H]1N2CC3` (stereo not given in full), inactive: 1.01; as for `CC[C@@H]1/C=C/C=C/C[C@H](C)[C@@H](O)[C@](C)(O)C(=O)[C@H](C)[C@@H](O)[C@H](C)C(=O)[C@H](C)[C@@H](O)[C@H](C)/C=C/C(=O)O[C@H]2[C@@H](C)[C@@H](CC1)O[C@@]1(CC[C@@H](C)[C@@H](C[C@H](C)O)O1)[C@@H]2C`, inactive: 1.03.
Regarding `CC(=O)N1CC[N+](C)(C)CC1`, the relative growth was inactive: 1.02.
`CCNC(=O)[C@H]1O[C@H](n2cnc3c(N)ncnc32)[C@@H](O)[C@@H]1O`: the relative growth is inactive: 1.01.
As for `COc1ccn(C)c(=O)c1C#N`, the relative growth is inactive: 0.932.
For the molecule `CC(=O)OC(C)(C)/C=C/C(=O)C(C)(O)[C@H]1[C@H](O)C[C@@]2(C)[C@H]3CC=C4[C@@H](C[C@H](O)C(=O)C4(C)C)[C@]3(C)C(=O)C[C@]12C` (stereo not given in full), the relative growth is inactive: 0.985.
As for `CO[C@H]1[C@H]2CC[C@@H]1NC2`, the figure is inactive: 1.04; as for `N#Cc1c(Cl)c(Cl)c(Cl)c(C#N)c1Cl`, inactive: 0.807.
In the case of `CCCCSP(=O)(SCCCC)SCCCC`, the relative growth is inactive: 0.969.
Turning to `O=C(NCc1ccccn1)[C@]12CNC[C@H]1COC2`, the relative growth was inactive: 0.992.
As to `COC1C(O)C(C)OC(OC2CCC3(C=O)C(CCC4C3CCC3(C)C(C5=CC(=O)OC5)CCC43O)C2)C1O` (stereo not given), the relative growth is inactive: 1.03.
As to `Cc1nc(N2CCN(C)CC2)ccc1N`, the relative growth was inactive: 1.01.
On to `C[C@H]1CN([C@@H](C)CO)C(=O)CCCn2nncc2CO[C@@H]1CN(C)C(=O)Oc1cccc2ccccc12`, for which the relative growth was inactive: 0.98.
Consider `NCCc1ccc(C(=O)c2ccccc2)cc1`, for which the relative growth was inactive: 0.942.
The value for `CN1C2CCC1CC(OC(=O)C(CO)c1ccccc1)C2.O=S(=O)(O)O` (stereo not given) was inactive: 1.2; that for `CC(=O)[O][PbH2][O]C(C)=O` was inactive: 0.901.
On to `CN(C)C(=O)CCC(=O)N1C[C@H]2C[C@@H]1CN2`, for which the relative growth is inactive: 0.989.
